Over roughly 2,900 compounds, “NF-kB SEAP reporter activity, fold change vs agonist alone” has its median near 0.99; the highest 2% begin near 2.6. The list shows a part of the results.
Key:
RAW-Dual [1] = assay: NF-kB SEAP reporter activity, fold change vs agonist alone; higher = enhanced NF-kB activity; conditions: cytotoxicity flag (confluency mask): not cytotoxic
Method in brief: (§1)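 RAW-Dual macrophages were seeded in DMEM at 50,000 cells/well in 384-well plates, given 50 nL of library stock by pin tool, and given a PRR agonist 1 h later. Plates were held at 37 °C, 5% CO2 for 20 hours, after which supernatant was read for IRF by QuantiLuc luminescence and for NF-κB by QuantiBlue absorbance at 620 nm. Reporter activity is expressed as fold change over wells that received agonist alone. A well was called cytotoxic when IncuCyte confluency fell below 70% of agonist controls in both mask sets.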

RAW-Dual [2] = assay: NF-kB SEAP reporter activity, fold change vs agonist alone; cytotoxicity flag (confluency mask): not cytotoxic; higher = enhanced NF-kB activity
Method in brief: as §1

[3] = library stock concentration (final ~1000-fold dilution): 10 mM, agonist: Imiquimod (TLR7) […]
[4] = library stock concentration (final ~1000-fold dilution): 10 mM, agonist: MPLA (TLR4) […]
[5] = agonist: ODN 1826 (TLR9) 0.5 ug/mL
[6] = agonist: Pam2CSK4 (TLR2/6) 0.1 ug/mL
[7] = agonist: Pam3CSK4 (TLR2/1) 0.1 ug/mL
[8] = library stock concentration (final ~1000-fold dilution): 10 mM water, agonist: Imiquimod (TLR7) […]
[9] = library stock concentration (final ~1000-fold dilution): 10 mM water, agonist: MPLA (TLR4) […]

In the case of `Cc1cccc(CC(=O)N2CCc3c2ccc(-c2cn(C)c4ncnc(N)c24)c3F)n1`, the “NF-kB SEAP reporter activity” value (RAW-Dual [1]; [3]) is reported as 0.857 and the “NF-kB SEAP reporter activity” value (RAW-Dual [1]; [4]) is reported as 1.2.

For `Cc1cccc(CC(=O)N2CCc3c2ccc(-c2cn(C)c4ncnc(N)c24)c3F)n1` (library stock concentration (final ~1000-fold dilution): 10 mM), the “NF-kB SEAP reporter activity” value (RAW-Dual [2]; agonist: LPS (TLR4) 0.1 ug/mL) was 2.11, the “NF-kB SEAP reporter activity” value (RAW-Dual [2]; [5]) was 0.866 and the “NF-kB SEAP reporter activity” value (RAW-Dual [2]; [6]) was 0.941. For the same molecule, the “NF-kB SEAP reporter activity” value (RAW-Dual [2]; [7]) was 1.13.

With `O=C1N[C@@H](Cc2cnc[nH]2)C(=O)N2CCC[C@@H]12` (library stock concentration (final ~1000-fold dilution): 10 mM) the “NF-kB SEAP reporter activity” value (RAW-Dual [2]; agonist: LPS (TLR4) 0.1 ug/mL) was 1.27, the “NF-kB SEAP reporter activity” value (RAW-Dual [2]; [5]) was 1.07 and the “NF-kB SEAP reporter activity” value (RAW-Dual [2]; [6]) was 0.988. For the same molecule, the “NF-kB SEAP reporter activity” value (RAW-Dual [2]; [7]) was 0.978.

For `O=C1N[C@@H](Cc2cnc[nH]2)C(=O)N2CCC[C@@H]12`, the “NF-kB SEAP reporter activity” value (RAW-Dual [1]; [3]) was 0.948 and the “NF-kB SEAP reporter activity” value (RAW-Dual [1]; [4]) was 1.05.

For `Cc1c(-c2cnccn2)ssc1=S`, the “NF-kB SEAP reporter activity” value (RAW-Dual [1]; [3]) was 0.94 and the “NF-kB SEAP reporter activity” value (RAW-Dual [1]; [4]) was 1.28.

In the case of `Cc1c(-c2cnccn2)ssc1=S` (library stock concentration (final ~1000-fold dilution): 10 mM), the “NF-kB SEAP reporter activity” value (RAW-Dual [2]; agonist: LPS (TLR4) 0.1 ug/mL) is reported as 0.927, the “NF-kB SEAP reporter activity” value (RAW-Dual [2]; [5]) is reported as 0.876 and the “NF-kB SEAP reporter activity” value (RAW-Dual [2]; [6]) is reported as 0.523. The “NF-kB SEAP reporter activity” value (RAW-Dual [2]; [7]) was 0.616.

In the case of `C(=C\c1ccccc1)/CN1CCN(C(c2ccccc2)c2ccccc2)CC1`, the “NF-kB SEAP reporter activity” value (RAW-Dual [1]; [4]) is reported as 1.04.

`C(=C\c1ccccc1)/CN1CCN(C(c2ccccc2)c2ccccc2)CC1` (library stock concentration (final ~1000-fold dilution): 10 mM) was tested, and the “NF-kB SEAP reporter activity” value (RAW-Dual [2]; agonist: LPS (TLR4) 0.1 ug/mL) was 1.23, the “NF-kB SEAP reporter activity” value (RAW-Dual [2]; [5]) was 0.987 and the “NF-kB SEAP reporter activity” value (RAW-Dual [2]; [6]) was 0.964. For the same molecule, the “NF-kB SEAP reporter activity” value (RAW-Dual [2]; [7]) was 0.976.

In the case of `CC(=O)c1c(C)c2cnc(Nc3ccc(N4CCNCC4)cn3)nc2n(C2CCCC2)c1=O.O=S(=O)(O)CCO` (library stock concentration (final ~1000-fold dilution): 10 mM water), the “NF-kB SEAP reporter activity” value (RAW-Dual [2]; agonist: LPS (TLR4) 0.1 ug/mL) is reported as 1.71, the “NF-kB SEAP reporter activity” value (RAW-Dual [2]; [5]) is reported as 0.449 and the “NF-kB SEAP reporter activity” value (RAW-Dual [2]; [6]) is reported as 0.752. The “NF-kB SEAP reporter activity” value (RAW-Dual [2]; [7]) was 1.29.

For `CC(=O)c1c(C)c2cnc(Nc3ccc(N4CCNCC4)cn3)nc2n(C2CCCC2)c1=O.O=S(=O)(O)CCO`, the “NF-kB SEAP reporter activity” value (RAW-Dual [1]; [8]) was 0.674 and the “NF-kB SEAP reporter activity” value (RAW-Dual [1]; [9]) was 1.09.

With `NS(=O)(=O)c1ccccc1` (library stock concentration (final ~1000-fold dilution): 10 mM) the “NF-kB SEAP reporter activity” value (RAW-Dual [2]; agonist: LPS (TLR4) 0.1 ug/mL) was 1.04, the “NF-kB SEAP reporter activity” value (RAW-Dual [2]; [5]) was 0.987 and the “NF-kB SEAP reporter activity” value (RAW-Dual [2]; [6]) was 1.07. The “NF-kB SEAP reporter activity” value (RAW-Dual [2]; [7]) was 0.771.

`NS(=O)(=O)c1ccccc1` was tested, and the “NF-kB SEAP reporter activity” value (RAW-Dual [1]; [4]) was 1.11.

In the case of `Cn1cnc([N+](=O)[O-])c1Sc1ncnc2nc[nH]c12` (library stock concentration (final ~1000-fold dilution): 10 mM), the “NF-kB SEAP reporter activity” value (RAW-Dual [2]; agonist: LPS (TLR4) 0.1 ug/mL) is reported as 1.06, the “NF-kB SEAP reporter activity” value (RAW-Dual [2]; [5]) is reported as 0.973 and the “NF-kB SEAP reporter activity” value (RAW-Dual [2]; [6]) is reported as 0.955. For the same molecule, the “NF-kB SEAP reporter activity” value (RAW-Dual [2]; [7]) was 1.06.

In the case of `Cn1cnc([N+](=O)[O-])c1Sc1ncnc2nc[nH]c12`, the “NF-kB SEAP reporter activity” value (RAW-Dual [1]; [3]) is reported as 1.01 and the “NF-kB SEAP reporter activity” value (RAW-Dual [1]; [4]) is reported as 0.773.

In the case of `CCC1C(=O)N(C)c2cnc(Nc3ccc(C(=O)NC4CCC(N5CCN(CC6CC6)CC5)CC4)cc3OC)nc2N1C(C)C` (stereo not given) (library stock concentration (final ~1000-fold dilution): 10 mM), the “NF-kB SEAP reporter activity” value (RAW-Dual [2]; agonist: LPS (TLR4) 0.1 ug/mL) is reported as 5.71, the “NF-kB SEAP reporter activity” value (RAW-Dual [2]; [5]) is reported as 0.977 and the “NF-kB SEAP reporter activity” value (RAW-Dual [2]; [6]) is reported as 1.95. The “NF-kB SEAP reporter activity” value (RAW-Dual [2]; [7]) was 0.886.

For `CCC1C(=O)N(C)c2cnc(Nc3ccc(C(=O)NC4CCC(N5CCN(CC6CC6)CC5)CC4)cc3OC)nc2N1C(C)C` (stereo not given), the “NF-kB SEAP reporter activity” value (RAW-Dual [1]; [3]) was 0.55 and the “NF-kB SEAP reporter activity” value (RAW-Dual [1]; [4]) was 0.684.

For `C=CC(=O)N1CCCC(n2c(=O)n(-c3ccc(Oc4ccccc4)cc3)c3c(N)ncnc32)C1` (stereo not given) (library stock concentration (final ~1000-fold dilution): 10 mM), the “NF-kB SEAP reporter activity” value (RAW-Dual [2]; agonist: LPS (TLR4) 0.1 ug/mL) was 0.632, the “NF-kB SEAP reporter activity” value (RAW-Dual [2]; [5]) was 0.727 and the “NF-kB SEAP reporter activity” value (RAW-Dual [2]; [6]) was 0.79. For the same molecule, the “NF-kB SEAP reporter activity” value (RAW-Dual [2]; [7]) was 0.831.

For `C=CC(=O)N1CCCC(n2c(=O)n(-c3ccc(Oc4ccccc4)cc3)c3c(N)ncnc32)C1` (stereo not given), the “NF-kB SEAP reporter activity” value (RAW-Dual [1]; [3]) was 0.764 and the “NF-kB SEAP reporter activity” value (RAW-Dual [1]; [4]) was 0.719.

With `CC(=O)OC(C)OC(=O)C(C)c1ccc(-c2ccccc2)c(F)c1` (stereo not given) the “NF-kB SEAP reporter activity” value (RAW-Dual [1]; [3]) was 0.888 and the “NF-kB SEAP reporter activity” value (RAW-Dual [1]; [4]) was 1.04.

`CC(=O)OC(C)OC(=O)C(C)c1ccc(-c2ccccc2)c(F)c1` (stereo not given) (library stock concentration (final ~1000-fold dilution): 10 mM) was tested, and the “NF-kB SEAP reporter activity” value (RAW-Dual [2]; agonist: LPS (TLR4) 0.1 ug/mL) was 0.982, the “NF-kB SEAP reporter activity” value (RAW-Dual [2]; [5]) was 0.926 and the “NF-kB SEAP reporter activity” value (RAW-Dual [2]; [6]) was 1. For the same molecule, the “NF-kB SEAP reporter activity” value (RAW-Dual [2]; [7]) was 1.16.

In the case of `Cc1ccc(NC(=O)c2cccc(C(C)(C)C#N)c2)cc1Nc1ccc2ncn(C)c(=O)c2c1` (library stock concentration (final ~1000-fold dilution): 10 mM), the “NF-kB SEAP reporter activity” value (RAW-Dual [2]; agonist: LPS (TLR4) 0.1 ug/mL) is reported as 2.5, the “NF-kB SEAP reporter activity” value (RAW-Dual [2]; [5]) is reported as 1.09 and the “NF-kB SEAP reporter activity” value (RAW-Dual [2]; [6]) is reported as 0.678. The “NF-kB SEAP reporter activity” value (RAW-Dual [2]; [7]) was 0.728.

For `Cc1ccc(NC(=O)c2cccc(C(C)(C)C#N)c2)cc1Nc1ccc2ncn(C)c(=O)c2c1`, the “NF-kB SEAP reporter activity” value (RAW-Dual [1]; [3]) was 1.37 and the “NF-kB SEAP reporter activity” value (RAW-Dual [1]; [4]) was 1.54.

For `Cl.Cn1cc(-c2nc(NC3CCCCC3N)c(F)c3c2C(=O)NC3)cn1` (stereo not given), the “NF-kB SEAP reporter activity” value (RAW-Dual [1]; [8]) was 0.375 and the “NF-kB SEAP reporter activity” value (RAW-Dual [1]; [9]) was 0.764.

With `Cl.Cn1cc(-c2nc(NC3CCCCC3N)c(F)c3c2C(=O)NC3)cn1` (stereo not given) (library stock concentration (final ~1000-fold dilution): 10 mM water) the “NF-kB SEAP reporter activity” value (RAW-Dual [2]; agonist: LPS (TLR4) 0.1 ug/mL) was 0.956, the “NF-kB SEAP reporter activity” value (RAW-Dual [2]; [5]) was 0.464 and the “NF-kB SEAP reporter activity” value (RAW-Dual [2]; [6]) was 0.292. The “NF-kB SEAP reporter activity” value (RAW-Dual [2]; [7]) was 0.427.

In the case of `OCCN(CCO)c1nc(N2CCCCC2)c2nc(N(CCO)CCO)nc(N3CCCCC3)c2n1`, the “NF-kB SEAP reporter activity” value (RAW-Dual [1]; [3]) is reported as 1.64 and the “NF-kB SEAP reporter activity” value (RAW-Dual [1]; [4]) is reported as 1.09.

`OCCN(CCO)c1nc(N2CCCCC2)c2nc(N(CCO)CCO)nc(N3CCCCC3)c2n1` (library stock concentration (final ~1000-fold dilution): 10 mM) was tested, and the “NF-kB SEAP reporter activity” value (RAW-Dual [2]; agonist: LPS (TLR4) 0.1 ug/mL) was 1.75, the “NF-kB SEAP reporter activity” value (RAW-Dual [2]; [5]) was 1.53 and the “NF-kB SEAP reporter activity” value (RAW-Dual [2]; [6]) was 1.11. The “NF-kB SEAP reporter activity” value (RAW-Dual [2]; [7]) was 1.29.

With `COCCCC/C(=N\OCCN)c1ccc(C(F)(F)F)cc1.O=C(O)/C=C\C(=O)O` (library stock concentration (final ~1000-fold dilution): 10 mM) the “NF-kB SEAP reporter activity” value (RAW-Dual [2]; agonist: LPS (TLR4) 0.1 ug/mL) was 1.04, the “NF-kB SEAP reporter activity” value (RAW-Dual [2]; [5]) was 0.819 and the “NF-kB SEAP reporter activity” value (RAW-Dual [2]; [6]) was 0.803. The “NF-kB SEAP reporter activity” value (RAW-Dual [2]; [7]) was 0.942.
